According to PubChem BioAssay (Tox21):
Records with an inconclusive call do not appear. Unless noted, the call rests on the fitted dose curve; in most records, active means well fitted curve in the direction sought with a large enough effect in the repeat runs; inconclusive means weak or mixed curves; inactive means no such curve, though single readings can be large; an effect the other way counts as inactive or inconclusive. Some compounds were tested as several samples or in several runs, with calls that do not always agree. Not every entry of the source has a single result; some have several. This is not the full list of results. The source may hold further records. Values that stand side by side repeat one measurement in other runs, samples, wells, individuals or studies. A tag in brackets gives the origin of a value. Letters hold for one entry only.

Experiments:
[1] = qHTS assay for small molecules that induce genotoxicity in human embryonic kidney cells expressing luciferase-tagged ATAD5 - cell viability (AID 651634; calls by dose curve; further: nearly all actives have a fitted effect of over 25% in size); conditions: HEK293T ATAD5-luc cells viability, CellTiter-Fluor, 15.5 h; series mostly up to 83.3 µM
In short: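 Cells (HEK293T, luciferase-tagged ATAD5) are seeded at 2,000 per well, dosed with compound or DMSO vehicle, and incubated 15.5 hr at 37C and 5% CO2. CellTiter-Fluor is added for 30 min before fluorescence is measured.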

[2] = biological target: Androgen receptor (Homo sapiens) (UniProt P10275); assay: qHTS assay to identify small molecule agonists of the androgen receptor (AR) signaling pathway using the MDA cell line (AID 743040; further: nearly all actives have a fitted effect of over 20% in size); conditions: MDA-kb2 AR-luc cells, MMTV luciferase, 16 h; series mostly up to 70.3 µM
UniProt P10275, sequence (P10275 whole entry, looked up): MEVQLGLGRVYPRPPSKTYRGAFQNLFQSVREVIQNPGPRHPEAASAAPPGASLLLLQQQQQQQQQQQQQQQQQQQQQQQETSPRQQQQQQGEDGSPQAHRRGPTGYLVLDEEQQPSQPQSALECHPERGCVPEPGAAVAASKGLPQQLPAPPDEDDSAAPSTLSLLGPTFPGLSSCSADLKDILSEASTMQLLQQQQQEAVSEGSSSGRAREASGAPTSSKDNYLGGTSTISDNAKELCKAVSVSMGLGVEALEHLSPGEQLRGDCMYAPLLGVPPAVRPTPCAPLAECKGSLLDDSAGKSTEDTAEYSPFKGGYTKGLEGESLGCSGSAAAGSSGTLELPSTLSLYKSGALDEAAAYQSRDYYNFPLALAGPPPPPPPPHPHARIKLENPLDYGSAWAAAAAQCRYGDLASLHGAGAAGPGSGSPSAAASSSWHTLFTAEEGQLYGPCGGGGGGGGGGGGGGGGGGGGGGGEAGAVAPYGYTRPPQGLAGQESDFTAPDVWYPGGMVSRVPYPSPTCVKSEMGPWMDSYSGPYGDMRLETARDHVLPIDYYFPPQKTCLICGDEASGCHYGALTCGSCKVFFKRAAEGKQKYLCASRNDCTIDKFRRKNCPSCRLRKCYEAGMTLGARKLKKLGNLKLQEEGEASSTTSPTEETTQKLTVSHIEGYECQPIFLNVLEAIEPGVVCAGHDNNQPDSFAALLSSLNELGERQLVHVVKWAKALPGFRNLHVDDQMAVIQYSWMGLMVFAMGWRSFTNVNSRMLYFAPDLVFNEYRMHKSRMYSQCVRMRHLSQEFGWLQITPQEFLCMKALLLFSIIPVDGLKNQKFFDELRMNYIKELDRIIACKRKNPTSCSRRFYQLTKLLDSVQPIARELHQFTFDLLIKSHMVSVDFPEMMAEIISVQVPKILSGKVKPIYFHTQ

[3] = qHTS assay to identify small molecule antagonists of the androgen receptor (AR) signaling pathway using the MDA cell line - cell viability counter screen (AID 743041; further: nearly all actives have a fitted effect of over 45% in size); conditions: MDA-kb2 viability, CellTiter-Fluor, 16 h, cells co-treated with R1881 androgen agonist; series mostly up to 70.3 µM
In short: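 Viability read by CellTiter-Fluor fluorescence in the same wells as the antagonist screen, added after 15.5 h of a 16 h, 37C exposure. Human breast carcinoma MDA-kb2 AR-luc cells, compounds co-dosed with agonist R1881.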

[4] = qHTS assay to identify small molecule antagonists of the thyroid receptor (TR) signaling pathway (AID 743065); conditions: GH3.TRE-Luc, T3-stimulated luciferase inhibition, 23.5 h; series mostly up to 70.3 µM; further: nearly all actives have a fitted effect of over 55% in size
In short: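 Antagonism measured as loss of luciferase signal in GH3 cells stably carrying a TRE-luciferase reporter, co-treated with compound and T3 (1 nM final) for 23.5 h at 37 C. Viability was read in the same well by CellTiter-Fluor.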
Potency means the concentration at half of the fitted maximal effect.

With `C=C1C(CCl)(CCl)C2(Cl)C(Cl)C(Cl)C1(Cl)C2(Cl)Cl` (stereo not given) the Potency [1] was “active: 29.8 µM [sample A] and inactive [sample B]”.

With `C[N+](C)(C)CCOP(=O)(O)OP(=O)([O-])OC[C@H]1O[C@@H](n2ccc(N)nc2=O)[C@H](O)[C@@H]1O` the Potency [2] was “inactive [sample A] and active: 29.8 µM [sample B]”.

For `CON=C1C[C@]2(C[C@@H]3C[C@@H](C/C=C(\C)C[C@@H](C)/C=C/C=C4\CO[C@@H]5[C@H](O)C(C)=C[C@@H](C(=O)O3)[C@]45O)O2)O[C@H](/C(C)=C/C(C)C)[C@H]1C`, the Potency [2] was “active: 596 nM [sample A] and inactive [sample B]”.

For `CC[C@@]1([C@@H]2O[C@@H]([C@H]3O[C@@](O)(CO)[C@H](C)C[C@@H]3C)C[C@@H]2C)CC[C@H]([C@]2(C)CC[C@]3(C[C@H](O)[C@@H](C)[C@@H]([C@@H](C)[C@@H](OC)[C@H](C)C(=O)O)O3)O2)O1` (stereo in doubt), the Potency [3] was “active: 3.76 µM [sample A] and inactive [sample B]”.

In the case of `CC(C)(C)c1ccc2c(S(=O)(=O)O)c(C(C)(C)C)ccc2c1`, the Potency [4] was “inactive [sample A] and active: 61.1 µM [sample B]”.
